pIC50: −log10 of the molar value. IC50 is the fitted dose that halves viability relative to control wells, and lower means more sensitive; a limit (>, <) means that the fit lies beyond the doses tested. The AUC spans the tested range (256-fold, ending at the top dose) of the same fit; it is 1 without any effect and falls as sensitivity rises. Any top dose called inferred was calculated from the reported fits.
Assays:
Test in all cases: Viability of human cancer cell lines after 72 h of drug (GDSC screen)
GSK-1904529A = compound: CCc1cc(Nc2nccc(-c3c(-c4ccc(OC)c(C(=O)Nc5c(F)cccc5F)c4)nc4ccccn34)n2)c(OC)cc1N1CCC(N2CCN(S(C)(=O)=O)CC2)CC1 [GSK-1904529A]; conditions: top dose 1.024 µM; top dose inferred
Description: (§1)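 Human cancer cell lines in 384-well plates, medium with 10% serum, drug for 72 h over a 256-fold dose range (nine 2-fold or five 4-fold steps up to the top dose). Adherent lines were fixed and stained with the nucleic acid dye Syto60, suspension lines read with resazurin; signal relative to control wells, capped at 0 and 100%. One two-parameter sigmoid per drug and line, fitted in a mixed model over all curves with the slope shared within a line.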

NG-25 = compound: CCN1CCN(Cc2ccc(NC(=O)c3ccc(C)c(Oc4ccnc5[nH]ccc45)c3)cc2C(F)(F)F)CC1 [NG-25]; conditions: top dose 10.24 µM; top dose inferred
Description: as §1

Tipifarnib = compound: Cn1cncc1[C@@](N)(c1ccc(Cl)cc1)c1ccc2c(c1)c(-c1cccc(Cl)c1)cc(=O)n2C [Tipifarnib]; conditions: top dose 16 µM; top dose inferred
Description: as §1

PFI-1 = compound: COc1ccccc1S(=O)(=O)Nc1ccc2c(c1)CN(C)C(=O)N2 [PFI-1]; conditions: top dose 10 µM; top dose inferred
Description: as §1

| Cell Line | AUC (GSK-1904529A) | pIC50 (GSK-1904529A) | AUC (NG-25) | pIC50 (NG-25) | AUC (Tipifarnib) | pIC50 (Tipifarnib) | AUC (PFI-1) | pIC50 (PFI-1) |
| --- | --- | --- | --- | --- | --- | --- | --- | --- |
| OVCAR-5 (ovary, adherent) | 0.976 | < 5.99 | 0.925 | < 4.99 | 0.851 | < 4.80 | 0.832 | 5.08 |
| NCI-H2228 (lung adenocarcinoma, adherent) | 0.963 | < 5.99 | 0.939 | < 4.99 | 0.64 | 5.53 | 0.971 | < 5.00 |
| TOV-21G (ovary, adherent) | 0.985 | < 5.99 | 0.978 | < 4.99 | 0.985 | < 4.80 | 0.887 | < 5.00 |
| CAL-12T (non-small cell lung carcinoma, adherent) | 0.925 | < 5.99 | 0.848 | 5.04 | 0.454 | 6.13 | 0.897 | < 5.00 |
| HPAF-II (pancreas, adherent) | 0.975 | < 5.99 | 0.918 | < 4.99 | 0.712 | 5.32 | 0.851 | < 5.00 |
| DMS-53 (small cell lung carcinoma, adherent) | 0.96 | < 5.99 | 0.988 | < 4.99 | 0.911 | < 4.80 | 0.841 | 5.11 |
| RT4 (bladder, adherent) | 0.983 | < 5.99 | 0.707 | 5.59 | 0.755 | 5.25 | 0.937 | < 5.00 |
| SUIT-2 (pancreas, adherent) | 0.965 | < 5.99 | 0.698 | 5.62 | 0.556 | 5.84 | 0.863 | 5.03 |
| NCI-H1437 (lung adenocarcinoma, adherent) | 0.943 | < 5.99 | 0.93 | < 4.99 | 0.727 | 5.34 | 0.926 | < 5.00 |
| LCLC-103H (large cell lung carcinoma, adherent) | 0.987 | < 5.99 | 0.909 | < 4.99 | 0.237 | 6.72 | 0.987 | < 5.00 |
| Detroit562 (head and neck, adherent) | 0.972 | < 5.99 | 0.972 | < 4.99 | 0.705 | 5.43 | 0.842 | 5.18 |
| KYM-1 (rhabdomyosarcoma, adherent) | 0.991 | < 5.99 | 0.988 | < 4.99 | 0.95 | < 4.80 | 0.834 | 5.28 |
| HuO9 (osteosarcoma, adherent) | 0.981 | < 5.99 | 0.958 | < 4.99 | 0.935 | < 4.80 | 0.828 | 5.15 |
| H2722 (mesothelioma, adherent) | 0.967 | < 5.99 | 0.932 | < 4.99 | 0.711 | 5.35 | 0.884 | < 5.00 |
| HCC1419 (breast, adherent) | 0.982 | < 5.99 | 0.958 | < 4.99 | 0.717 | 5.26 | 0.92 | < 5.00 |
| HCT-15 (large intestine, adherent) | 0.983 | < 5.99 | 0.853 | 5.06 | 0.315 | 6.53 | 0.985 | < 5.00 |
| SN12C (kidney, adherent) | 0.981 | < 5.99 | 0.985 | < 4.99 | 0.782 | 5.12 | 0.923 | < 5.00 |
| NCI-H1651 (lung adenocarcinoma, adherent) | 0.979 | < 5.99 | 0.987 | < 4.99 | 0.854 | 4.85 | 0.964 | < 5.00 |
| SISO (cervix, adherent) | 0.984 | < 5.99 | 0.973 | < 4.99 | 0.541 | 5.89 | 0.851 | 5.14 |
| JHH-2 (liver, adherent) | 0.982 | < 5.99 | 0.846 | 5.08 | 0.87 | < 4.80 | 0.928 | < 5.00 |

| Cell Line | AUC (GSK-1904529A) | pIC50 (GSK-1904529A) | AUC (NG-25) | pIC50 (NG-25) | AUC (Tipifarnib) | pIC50 (Tipifarnib) | AUC (PFI-1) | pIC50 (PFI-1) |
| --- | --- | --- | --- | --- | --- | --- | --- | --- |
| PL18 (pancreas, adherent) | 0.983 | < 5.99 | 0.899 | < 4.99 | 0.774 | 5.21 | 0.986 | < 5.00 |
| C3A (liver, adherent) | 0.98 | < 5.99 | 0.922 | < 4.99 | 0.682 | 5.48 | 0.91 | < 5.00 |
| HuP-T4 (pancreas, adherent) | 0.984 | < 5.99 | 0.815 | 5.22 | 0.621 | 5.66 | 0.688 | 5.66 |
| IPC-298 (melanoma, adherent) | 0.979 | < 5.99 | 0.872 | 5.02 | 0.751 | 5.29 | 0.754 | 5.48 |
| SBC-5 (small cell lung carcinoma, adherent) | 0.992 | < 5.99 | 0.913 | 5.00 | 0.683 | 5.54 | 0.929 | < 5.00 |
| EPLC-272H (lung squamous cell carcinoma, adherent) | 0.976 | < 5.99 | 0.788 | 5.29 | 0.799 | 5.05 | 0.792 | 5.29 |
| Hs766T (pancreas, adherent) | 0.982 | < 5.99 | 0.983 | < 4.99 | 0.886 | < 4.80 | 0.943 | < 5.00 |
| BICR10 (head and neck, adherent) | 0.969 | < 5.99 | 0.981 | < 4.99 | 0.705 | 5.38 | 0.877 | < 5.00 |
| SBC-3 (small cell lung carcinoma, adherent) | 0.94 | < 5.99 | 0.783 | 5.41 | 0.27 | 6.62 | 0.728 | 5.59 |
| HOS (osteosarcoma, adherent) | 0.992 | < 5.99 | 0.992 | < 4.99 | 0.42 | 6.20 | 0.855 | 5.22 |
| BEN (non-small cell lung carcinoma, adherent) | 0.971 | < 5.99 | 0.921 | < 4.99 | 0.75 | 5.23 | 0.841 | 5.07 |
| SJRH30 (rhabdomyosarcoma, adherent) | 0.957 | < 5.99 | 0.986 | < 4.99 | 0.799 | 5.10 | 0.897 | < 5.00 |
| PCI-6A (head and neck, adherent) | 0.959 | < 5.99 | 0.817 | 5.25 | 0.7 | 5.44 | 0.915 | < 5.00 |
| H513 (mesothelioma, semi-adherent) | 0.91 | < 5.99 | 0.984 | < 4.99 | 0.947 | < 4.80 | 0.938 | < 5.00 |
| GAMG (glioma, adherent) | 0.978 | < 5.99 | 0.811 | 5.24 | 0.711 | 5.39 | 0.914 | < 5.00 |
| SCC-4 (head and neck, adherent) | 0.961 | < 5.99 | 0.962 | < 4.99 | 0.515 | 5.95 | 0.873 | < 5.00 |
| SW1463 (large intestine, adherent) | 0.974 | < 5.99 | 0.978 | < 4.99 | 0.773 | 4.93 | 0.895 | < 5.00 |
| RERF-GC-1B (stomach, adherent) | 0.985 | < 5.99 | 0.669 | 5.70 | 0.887 | < 4.80 | 0.911 | < 5.00 |
| huH-1 (liver, adherent) | 0.981 | < 5.99 | 0.984 | < 4.99 | 0.823 | 4.90 | 0.938 | < 5.00 |
| J82 (bladder, adherent) | 0.98 | < 5.99 | 0.976 | < 4.99 | 0.682 | 5.49 | 0.881 | < 5.00 |

| Cell Line | AUC (GSK-1904529A) | pIC50 (GSK-1904529A) | AUC (NG-25) | pIC50 (NG-25) | AUC (Tipifarnib) | pIC50 (Tipifarnib) | AUC (PFI-1) | pIC50 (PFI-1) |
| --- | --- | --- | --- | --- | --- | --- | --- | --- |
| SK-MEL-3 (melanoma, adherent) | 0.967 | < 5.99 | 0.749 | 5.42 | 0.671 | 5.49 | 0.943 | < 5.00 |
| PC-3 [JPC-3] (lung adenocarcinoma, adherent) | 0.97 | < 5.99 | 0.862 | < 4.99 | 0.701 | 5.35 | 0.95 | < 5.00 |
| NCI-H1435 (lung adenocarcinoma, semi-adherent) | 0.992 | < 5.99 | 0.991 | < 4.99 | 0.924 | < 4.80 | 0.916 | < 5.00 |
| EBC-1 (lung squamous cell carcinoma, adherent) | 0.983 | < 5.99 | 0.975 | < 4.99 | 0.482 | 6.05 | 0.692 | 5.63 |
| SW1990 (pancreas, adherent) | 0.983 | < 5.99 | 0.976 | < 4.99 | 0.76 | 5.18 | 0.957 | < 5.00 |
| DBTRG-05MG (glioma, adherent) | 0.984 | < 5.99 | 0.896 | < 4.99 | 0.761 | 5.18 | 0.894 | < 5.00 |
| P12-ICHIKAWA (T-cell lymphoblastic leukaemia, suspension) | 0.994 | < 5.99 | 0.934 | < 4.99 | 0.851 | 5.08 | 0.966 | < 5.00 |
| G-292 Clone A141B1 (osteosarcoma, adherent) | 0.856 | < 5.99 | 0.957 | < 4.99 | 0.837 | < 4.80 | 0.972 | < 5.00 |
| AGS (stomach, adherent) | 0.99 | < 5.99 | 0.923 | < 4.99 | 0.628 | 5.67 | 0.854 | 5.18 |
| NCI-H28 (mesothelioma, adherent) | 0.935 | < 5.99 | 0.891 | < 4.99 | 0.776 | 5.07 | 0.904 | < 5.00 |
| TCCSUP (bladder, adherent) | 0.984 | < 5.99 | 0.881 | < 4.99 | 0.691 | 5.43 | 0.903 | < 5.00 |
| JHU-022 (head and neck, adherent) | 0.974 | < 5.99 | 0.899 | < 4.99 | 0.846 | < 4.80 | 0.839 | 5.02 |
| RPMI-2650 (head and neck, adherent) | 0.98 | < 5.99 | 0.834 | 5.13 | 0.706 | 5.40 | 0.836 | 5.13 |
| CHSA0011 (chondrosarcoma, adherent) | 0.98 | < 5.99 | 0.907 | < 4.99 | 0.98 | < 4.80 | 0.861 | < 5.00 |
| COLO-205 (large intestine, suspension) | 0.984 | < 5.99 | 0.891 | < 4.99 | 0.702 | 5.44 | 0.886 | < 5.00 |
| AsPC-1 (pancreas, adherent) | 0.964 | < 5.99 | 0.901 | < 4.99 | 0.906 | < 4.80 | 0.873 | < 5.00 |
| DOK (head and neck, adherent) | 0.937 | < 5.99 | 0.936 | < 4.99 | 0.911 | < 4.80 | 0.776 | 5.20 |
| SW1783 (glioma, adherent) | 0.983 | < 5.99 | 0.974 | < 4.99 | 0.403 | 6.25 | 0.986 | < 5.00 |
| BT-483 (breast, adherent) | 0.976 | < 5.99 | 0.961 | < 4.99 | 0.969 | < 4.80 | 0.908 | < 5.00 |
| YKG-1 (glioma, adherent) | 0.987 | < 5.99 | 0.922 | < 4.99 | 0.377 | 6.34 | 0.927 | < 5.00 |
